Laboratory results published in the antibiotic and cytotoxicity screens of Wong et al. (2023).
This is one part of the list.

Legend:
HSkMC = human skeletal muscle cells; experiment: cytotoxicity call (relative viability < 0.9); conditions: 10 µM
HepG2 = experiment: cytotoxicity call (relative viability < 0.9); conditions: 10 µM
S. aureus RN4220 = experiment: growth inhibition call (relative growth <= 0.2); conditions: 50 µM

C[C@H](CO)N1C[C@H](C)[C@@H](CN(C)C(=O)Nc2ccccc2)Oc2c(NC(=O)C3CCOCC3)cccc2C1=O
inactive: cytotoxicity call (HSkMC) | cytotoxicity call (HepG2) | growth inhibition call (S. aureus RN4220)

COc1ccc([Si](C)(C)[C@H]2[C@H](CCO)O[C@@]3(C(=O)N(Cc4cccc(N5CCCCC5=O)c4)c4ccccc43)[C@@H]2C)cc1
inactive: cytotoxicity call (HSkMC) | cytotoxicity call (HepG2) | growth inhibition call (S. aureus RN4220)

CC(CCc1ccccc1)NCC(O)c1ccc(O)c(C(N)=O)c1.Cl (stereo not given)
inactive: cytotoxicity call (HSkMC) | cytotoxicity call (HepG2) | growth inhibition call (S. aureus RN4220)

C[C@@H]1CN([C@@H](C)CO)C(=O)c2cccc(NC(=O)Nc3cccc4ccccc34)c2O[C@H]1CN(C)C(=O)Nc1ccc(F)cc1
inactive: cytotoxicity call (HSkMC) | cytotoxicity call (HepG2) | growth inhibition call (S. aureus RN4220)

C[C@H](CO)N1C[C@H](C)[C@@H](CN(C)C(=O)c2cc(-c3ccccc3)on2)OCc2cnnn2CCCC1=O
inactive: cytotoxicity call (HSkMC) | cytotoxicity call (HepG2) | growth inhibition call (S. aureus RN4220)

O=C(NOCCO)c1cc(CN2OCCCC2=O)c(F)c(F)c1Nc1ccc(I)cc1F
inactive: cytotoxicity call (HSkMC) | cytotoxicity call (HepG2) | growth inhibition call (S. aureus RN4220)

Cc1ccc(S(=O)(=O)Nc2ccc3c(c2)CC(=O)N([C@H](C)CO)C[C@@H](C)[C@H](CN(C)S(=O)(=O)c2cn(C)cn2)O3)cc1
inactive: cytotoxicity call (HSkMC) | cytotoxicity call (HepG2) | growth inhibition call (S. aureus RN4220)

CCCNC(=O)N[C@H]1CC[C@@H](CC(=O)N2CCN(C)CC2)O[C@@H]1CO
inactive: cytotoxicity call (HSkMC) | cytotoxicity call (HepG2) | growth inhibition call (S. aureus RN4220)

COc1ccc(C(=O)Nc2ccc3c(c2)C(=O)N(C)[C@@H]2CC[C@@H](CC(=O)NCC4CC4)O[C@H]2CO3)cc1
inactive: cytotoxicity call (HSkMC) | cytotoxicity call (HepG2) | growth inhibition call (S. aureus RN4220)

C[C@H]1CCCCO[C@H](CN(C)C(=O)Nc2ccccc2)[C@@H](C)CN([C@@H](C)CO)C(=O)c2cc(NC(=O)Nc3ccc4c(c3)OCO4)ccc2O1
inactive: cytotoxicity call (HSkMC) | cytotoxicity call (HepG2) | growth inhibition call (S. aureus RN4220)
